Experimental data: the supplement of paper PMC3334620
In all, about 33,000 sequences were measured (“E-score (-0.5 to 0.5)”: median about -0.036, highest 2% from about 0.37 on). This is one part of the list.

Target: T1, Yer064c (UniProt P40041)
T1 sequence: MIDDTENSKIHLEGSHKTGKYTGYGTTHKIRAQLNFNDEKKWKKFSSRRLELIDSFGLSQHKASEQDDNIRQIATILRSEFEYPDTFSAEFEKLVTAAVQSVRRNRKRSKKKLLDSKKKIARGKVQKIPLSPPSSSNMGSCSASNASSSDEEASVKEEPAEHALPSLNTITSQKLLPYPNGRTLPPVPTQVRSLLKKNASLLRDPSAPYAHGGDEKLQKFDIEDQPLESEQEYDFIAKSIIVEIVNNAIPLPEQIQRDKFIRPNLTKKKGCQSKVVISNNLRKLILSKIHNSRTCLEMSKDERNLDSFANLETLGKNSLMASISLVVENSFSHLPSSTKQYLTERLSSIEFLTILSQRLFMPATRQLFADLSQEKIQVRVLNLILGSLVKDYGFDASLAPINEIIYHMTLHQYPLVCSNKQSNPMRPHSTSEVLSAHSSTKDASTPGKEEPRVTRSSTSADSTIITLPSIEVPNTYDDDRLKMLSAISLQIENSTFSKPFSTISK
Test: PBM E-score (8-mer binding enrichment) (E-score (-0.5 to 0.5)); higher = stronger / more preferred TF binding; most listed sequences are background and not binding sites
Conditions: protein concentration: 200 nM; construct: GST-full length
Experimental: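 Universal 'all 10-mer' protein binding microarrays (Agilent AMADID 015681) probed with GST-tagged S. cerevisiae TFs (full-length or DBD) made by in vitro transcription/translation (PURExpress), about 100-200 nM. Bound TF was detected with fluorescent anti-GST. Each ungapped 8-mer (which stands for itself and its reverse complement) is scored by the PBM enrichment score (E-score), a modified Wilcoxon-Mann-Whitney statistic from -0.5 to +0.5, computed with the Universal PBM Analysis Suite. Scale: above 0.35 generally sequence-specific binding.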

Sequence | PBM E-score
TATTCTCA | 0.039
AAATACGG | -0.0165
CCGTCAAG | -0.243
CAACGGGG | 0.0671
ATCACCAT | 0.191
AACAATAA | 0.0809
CCCAAGGA | -0.0414
CTCGCCAC | -0.0736
CATTTAAC | 0.125
ATTCACCG | 0.0472
GTATCGAC | 0.07
ACCGAATG | -0.149
GCAACACA | 0.0656
AACCATGT | 0.159
AGTCTAAC | 0.127
AAACGCCG | -0.037
GAGAGGGC | -0.203
ACCTCTGA | 0.027
CAGTGAAG | -0.0176
CGAGATGA | 0.233
CCCCTGGC | -0.266
AACCTGGC | -0.18
ATCTTGGG | -0.0917
GTCCCAAC | 0.0262
GACTAATC | 0.439

Sequence | PBM E-score
GGTCACAA | 0.0763
GTAGAGTA | 0.0307
CAAGGTGC | -0.315
ACTAATTC | 0.265
GATGCATC | -0.0114
AAAGGCCC | -0.237
AGCATTCA | -0.0549
ATCCATAA | 0.0276
ACGGTAAT | 0.0587
AGTGATTC | 0.405
ACATCAGA | 0.0253
AGCCTGTA | -0.0624
GCGTAAGA | 0.0755
AGACGTGC | -0.129
AACGGAGG | -0.218
AATAGGCG | -0.213
GACTACCC | 0.42
AAAATCCA | -0.125
CGCCTACC | -0.132
AACTCTGT | -0.0335
ACCATCAC | 0.0299
GCGAACTA | 0.0247
AGCATTGC | -0.202
CGACCGGC | -0.0607
ACGTTTCA | -0.25

Sequence | PBM E-score
GGGTACAA | 0.0531
CGGCAAAG | -0.153
GGTATCCA | -0.0854
AAACATCT | 0.03
AGTAATCG | 0.186
ACATCCTG | 0.0753
GTTGGTCA | 0.0845
AACTAGCA | -0.00106
AGATCTGC | -0.053
AGACTGCT | 0.0961
GCGTTCCC | -0.339
GTCCTACA | 0.0711
AGCATAAG | -0.0854
GGACGTTA | -0.11
ACTTGATC | 0.149
ATCACATC | 0.143
AATCTGTA | 0.0309
ATACAAAT | -0.0539
TAATAGCA | -0.09
AAGCATCG | -0.272
ATCTTCCG | -0.0471
ACCGATCT | -0.255
CGATGAAG | -0.0335
GCCCCCGA | -0.231
ATTTCTTA | 0.0476

Sequence | PBM E-score
ACTGTTGG | 0.00718
AGACGAAT | 0.00164
AGGGGATA | -0.169
CCTTAACA | -0.188
AGAGTCTC | 0.332
CCGCAATC | -0.00524
ATTTAGTG | 0.127
AGGTGTAT | -0.0724
CTACTCCC | -0.025
ATGATATA | 0.0245
CTTGGGAC | 0.0238
CGTAAACG | -0.157
ACGGTTAC | 0.0048
ATAGCACA | 0.0456
GACCGCCC | -0.228
AAGTCTGT | 0.0944
CTACCGTA | 0.185
ACCGTTTC | -0.159
CGGGTTGC | -0.212
CCGACAGC | -0.394
ATACGAAG | 0.0534
AAATAAAC | 0.0137
CCCTTTAG | -0.0961
CTACTAGA | 0.0781
CAAATATG | -0.0122

Sequence | PBM E-score
CTAACCAG | 0.188
TAATGCAA | 0.0341
ATCTCTCC | -0.182
AAGACGAA | 0.0942
AAACAGGA | -0.0996
GATCAATC | 0.0711
GCCAACGC | -0.143
CAGCGCTG | -0.0171
CCGTAGGA | -0.147
CGTGGCCA | -0.285
AATGCGCC | -0.252
GGAAGGCA | -0.213
CCATTTTA | -0.0471
ATTTCTCC | 0.00421
AACTTTCT | -0.0939
ATAGTAGC | -0.149
CGGATCGC | -0.172
GGACGGCA | -0.224
GTGTGACA | -0.139
AAGCTGAA | -0.118
ACTTGCCG | 0.0548
ATCGAGTG | 0.139
GGAGCACC | -0.293
CTGACAAC | 0.0867
AGTATGGC | 0.0363

Sequence | PBM E-score
AGGTTTCG | -0.0887
ATCAGGAC | 0.219
GTCCGCGA | 0.041
ATCGCCGC | -0.042
AAGGTGCC | -0.144
ACGGCTTC | -0.224
GAGAATGA | 0.125
GTTGATAA | 0.209
GGCCTCCA | -0.169
CGACCACG | -0.115
CTGCAGCC | -0.105
TCTTGTCA | 0.0805
GATCACTA | 0.135
AACGTCCG | -0.343
TAAATTTA | 0.249
CGATAATA | -0.0601
CGTCCGTC | -0.269
AGTCCGCA | 0.255
CTTCGTCC | -0.159
GAGCGGTA | -0.164
ACAAAAGA | 0.106
TAAAGCGA | 0.177
ATGGGTAC | 0.239
CACGATGC | -0.0934
AACCATCT | 0.128

Sequence | PBM E-score
AGTTTAGG | 0.0907
AATGCAGA | 0.0123
CCCCTCGC | -0.204
CGTTCGAA | 0.184
GCTGATAA | -0.0118
GGACTACA | 0.262
CGGAAAAC | -0.147
CATAGATC | -0.00739
TGGTGTAA | -0.0744
AACTAAAA | 0.0564
AAACTACG | -0.0191
CACTCCCA | 0.0058
CGCATGAG | 0.145
AACGTATA | -0.088
ATTCGTCG | 0.0523
ATTACAAT | 0.0194
ATGGCTGG | -0.105
ACATCCGT | -0.00276
CCGGGGTC | -0.134
ATCAAGGC | 0.136
ACGCAACA | -0.0207
GATCACCA | 0.094
CTCAGCAC | -0.11
CACCAGCA | -0.0231
AAACGGCC | -0.185

Sequence | PBM E-score
CCTGGAAA | -0.189
CGGGTTGA | 0.0912
TACGCGTA | 0.042
GTGGAGAA | -0.0503
CCTTCGCA | -0.293
GCTACCTA | -0.161
GTTCCCTA | -0.143
ACTACGAA | 0.12
GTGATGCA | -0.104
GGGGGAGA | -0.265
ACACCTTC | -0.115
GCTAGGCA | -0.0458
ATTCGACA | -0.141
AGCCGCGG | -0.219
AGGACGGC | -0.0933
CGGGTTCC | -0.245
AACTGAAC | -0.119
AACCCTTA | -0.0338
TACAGCAA | 0.0441
AGGAAGGA | -0.0925
CATAAAAC | 0.0389
CCAGCTGA | 0.146
ATATGACA | -0.00572
CATGGCGA | 0.0484
ATGTTGGG | -0.217

Sequence | PBM E-score
CTACCACA | 0.149
CCACTCAA | 0.0849
CCGCCTGC | 0.00718
GTCGCCAA | 0.161
GAATTTAA | 0.0168
TCACAACA | 0.204
CACCAACA | 0.0386
AGGTACAG | -0.104
AGTGGCTC | 0.0696
CATCTGTA | -0.0129
AAGAACTA | 0.0907
TAGAAACA | -0.0213
GATATTGA | 0.0449
TCGAGTCA | 0.471
CGTCTGGC | -0.0308
CTACGCAG | 0.0104
GCTGTAAA | -0.0319
ATCGCAGC | 0.0831
CCGGCAGC | -0.094
